Results taken from the RNAGym collection of RNA variant scans (doi:10.7554/elife.90254).
The source gives no read counts; variants with many changes may rest on few reads.

B1: LINE1-mini (parent)
chain: GGCAGAGCUCAACACAGCGUGGCAAAGUGGCUGUGGCUAGACUGCC

Variants of: B1
Assay: self-cleavage, relative activity (ratio to wild type); higher = more cleavage; in vitro, sequencing; the parent is a self-cleaving ribozyme
Work on GGCAGAGCUCAACACAGCGUGGCAAAGUGGGGUUGGCUAGACCGCC yielded a self-cleavage of 0.
For GGCAGAGCUCAACACAGUGUGGCAAAGUGUCUGAGGCUAGACUGCC, the self-cleavage was 0.01.
CGCAGAGCGCAACGCAGCGUGGCAAAGUGGCUGUGGCUAGACUGUC showed a self-cleavage of 0.01.
GGUAGACCUCAACACAGCAUGGCAAAGUGGCUGUUGCUAGACUGCC gave a self-cleavage of 0.03.
With GGCAGAGCUCAAAACUGCGUGGCAAAGUGGCUGUGGCUAGACUGAG the self-cleavage was 0.05.
Variant GGCAGAGCUCAACACUGCGUGGCAAAGUGGCUGUGGCUAGGCUGCA has a self-cleavage of 0.01.
Variant AGCAGAGCUCAACACACCGUGGCAAAGUGGCUAUGGCUAGACUGCC has a self-cleavage of 0.5.
With GGCAGAGCUCAACACAGCAUGGCGACGUGGCUGUGGCUAGACUGCC the self-cleavage was 0.29.
Work on GGCAGAGCUCAACACAGCGUGCCAAAGCGGAUAUUGCUAGACUGCC yielded a self-cleavage of 0.08.
Variant GGCAUAUCUCGACACAGCGUGGCAAAGUGGCUGUGGCUACACUGCC has a self-cleavage of 0.
In the case of GGCAGAGCUCAAGACAGCGUGGCAAAGCGGGUGUGGCUAGACUGCC, the self-cleavage is reported as 0.06.
With GGCAGAGCUCAACACAGUGUAGCAAAGUGGCUGUGUCUAGGCUGCC the self-cleavage was 0.13.
For GGCAGAGCUCAACACAGCGGUGCAAAGUGGCUGUGGCUCGACUGCC, the self-cleavage was 0.15.
Work on GGCAGAGCACAACACAGCGUGGCAUAGUGGCUGUGGCUAGACUGCU yielded a self-cleavage of 0.13.
Variant GGCAGAGCUCUACAAAGCGUGGCAAAGUGGCUGUGGCUCGACUGCC has a self-cleavage of 0.01.
With GGCCGAGCUCAACACAGAGUGGCAAACUGGCUGUGGCUAGACUGCC the self-cleavage was 0.01.
With GGCAAAGCUCACCACACCGGGGCAAACUGGCGGUGCCUAGACUACC the self-cleavage was 0.01.
GGCAGAGCUCUACCCAGUGUGGCAAAGUGGCUGUGGCUAGACUGCC gave a self-cleavage of 0.02.
GGCAGAGUUCAACAAAGGGUGGCAAAGUGGCUGUGGCUAGACUGCC gave a self-cleavage of 0.01.
Work on GGCAGAGAUCUACACAGCGUGGCAAAGUGGCUGUGGCUUGAUAGCC yielded a self-cleavage of 0.01.
Work on GGCAGUGCUCAACACAGCGUGGCAAAGUGGCGGUGGCUAGACUGCU yielded a self-cleavage of 0.04.
With GGCAGUGCUCAACACAGUGUGGCAAAGUGGCUAUGGCUAGACUGCC the self-cleavage was 0.08.
In the case of GGCGGAGCUCAGCACAGCGUGGCAAAUUGGCUGUGGCUAGACUGCC, the self-cleavage is reported as 0.01.
For GGCAGAGCUCACCACAGCGUGGCAAAGUGCCUGUUCCUAGAAUGCC, the self-cleavage was 0.
Work on GGCAGAGCUGAACACACCGUGGCAAAGUGGCUGUAGCUGGACUGAC yielded a self-cleavage of 0.
GGCCGAGCUCCACACCGCGUGGCAAAGUGUCUGUGGCUAGACUGUC gave a self-cleavage of 0.01.
For GGCGGACCUGAACACAGCCUGGCAAAGUGGCUGUGGCUAGACUGCC, the self-cleavage was 0.02.
In the case of GGCGGAGCUCAACACAGCGUGGCAAAGUGCCUGUGGCUAGACUGUC, the self-cleavage is reported as 0.6.
Work on GGCAGAGCGCAAAAAAGCGUGGCAAAGUGCCUGUGGCUAGACUGCC yielded a self-cleavage of 0.03.
For GCCAGAGCUCAACACAGCAUGCCAAAGUGGCUGUGGCUAGAAUGCC, the self-cleavage was 0.04.
GACAGAGCUCAACACAGCGUGGCAAAGUGGCUGUAGCCAGACUGCC showed a self-cleavage of 0.36.
GGCAGGGCUCAACAAAGCCUGGCAAACGGGCUGUGGCCAGAGUCCC gave a self-cleavage of 0.
With GGCAGAGCUCAACACAGCGUGGCAAAGUGGCUGUGGCUAGUGUGUU the self-cleavage was 0.
GGCAGAACUCAACCCAGCGUGGCAAAGUGGCUGUGGCUAGACUCCA gave a self-cleavage of 0.11.
Variant GGCAGAGCUCAACACAGCGUGGAAAAGUGGAUGUGGCUAGACUUAC has a self-cleavage of 0.22.
Work on GGCAGAGCUCAACACGCCGAGGCAAAGUGGCUGUGGCUAGACUGAC yielded a self-cleavage of 0.13.
With GGCAGAGCUCAACACUGCGUGGCAAAGUGGGUGUGGCUAGACCGUC the self-cleavage was 0.03.
GGCAGAGCUCACCACAGCGUGACAAUGUGGUUGUGGCUAGACUGCC gave a self-cleavage of 0.
GGCAUCGCUCAACACUGCGUGCCAAACUGGCUGUGGCUAGACUGCC showed a self-cleavage of 0.02.
With GGCAGAGCUCAACACAGCGUGGCAAAGUGGCUUUGGCUAGAAUUCA the self-cleavage was 0.05.
GGCAGAGACGAACACAGCGUGGCGAAGUGGCUGUGGCUAGACUGCC gave a self-cleavage of 0.03.
With GGCAGAGCUCAACACAGCGUGGGAAAAUGGCUGUGGGUAGACUGCC the self-cleavage was 0.01.
Variant GGCAGAGGGCAACAUAGCGUGGCAAAGUGGCUGUGGCUAGACUGCC has a self-cleavage of 0.03.
In the case of GGCAGAGCUCAACGAAGCGUGCCAAAGUGGCUGUGGCUAGACUGCC, the self-cleavage is reported as 0.21.
For GGCAGAGAUCAACACAGCGUAACCAAGCGGCUUUGGCUAGACUGCC, the self-cleavage was 0.58.
Variant GGCAGAGCUCAACACAGCUUGGCAAACUGGCAGUGGCUAGACUGCC has a self-cleavage of 0.16.
Variant GGCAAAGCUAAACACAGCGUGGCAAAGUGGCAGUGGCUAGACUACC has a self-cleavage of 0.06.
GGCAGAGCUCAACACAACUUGGCAAAGUGACUGUGGCUAGACUUCC showed a self-cleavage of 0.07.
GGAAGCGCUCAACACAGCGUGGCAAGGUGGCUGUGGUUAUACUGCC gave a self-cleavage of 0.2.
For GGCGGAGCUCAACACAGCGUCGAGAAGUGGCUGUGGCUAGAUUGCC, the self-cleavage was 0.07.
In the case of GGCAGAGCUCAACACAGCGUGAGAAAGUCGCUGUGGCUACACUGCC, the self-cleavage is reported as 0.06.
With GCCAGAGCUCAACACAGCGUGGCAAAGUUGCUGGGGCUAGACUGCC the self-cleavage was 0.02.
Work on GGCAGAGCUCAAUACAGCCUGGGAAAGUGGAUGUGGCUAGACUGCC yielded a self-cleavage of 0.05.
Variant AGCGGAGCUCAACAAAGCGCGGCAAAGUGGCUGUGUCUAGACUGCC has a self-cleavage of 0.17.
GGCGGAGCUCAACACAGGGUGGCACAGUGGCUGUGGCUAGACUGCC gave a self-cleavage of 0.04.
Variant UGCAGAGCUCAACACAGCGUGGCAAAGUGCCUGUGGCAAGACUGCC has a self-cleavage of 0.1.
